T1: UNK ZnF1-3 (human, UniProt Q9C0B0 31-174)
T1 sequence: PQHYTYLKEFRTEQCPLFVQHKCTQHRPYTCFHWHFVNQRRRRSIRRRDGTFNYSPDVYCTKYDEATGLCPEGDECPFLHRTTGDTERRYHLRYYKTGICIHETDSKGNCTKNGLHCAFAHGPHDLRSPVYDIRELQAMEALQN

B1: chr14:92597410:92597411:+_ENSG00000165934_ENST00000298875|hu_mus|FALSE|FALSE (ssRNA)
RNA: GGGAGUUCUACAGUCCGACGAUCGGAAUCAAUAAUGUCCACAGAGAAGUGUUCAUCCCAGCCACAGUCCAACAAAAACCUAAACUCAUCAACCUGGAGAAGAUAGCAAAGAGCGGACUCUUCUUGAACCCCAGAGAGGGUGGUCAACAGAGGAUUGAGCAUCA
B2: chr1:85784824:85784825:-_ENSG00000153904_ENST00000284031|hu_hu|motif|central (ssRNA)
RNA: GGGAGUUCUACAGUCCGACGAUCAGUAUCUUUCCUUUUCAAAAAUAACAUUAUGCUAAUGAGAACAUCAAAGAAGUAAUACGGUGCUGCAAGUAAUUUAGGUUUUCACAUCAUCAAUCAUAUAGGGAGUCCAAAGAAGCCAGCCAACAGAGGAUUGAGCAUCA
B3: 247079626_247081600_256_CDS_ENSG00000153207_ENST00000391829|human|control|control (ssRNA)
RNA: GGGAGUUCUACAGUCCGACGAUCUCGCUCUCCUGUUAUAGAGUUUACUACCUCAAGUUGUGGACCACAAGCCAAGCAAGCAAGUCCAUUUUUCCCUGCAGCAAACUUUCCACGAAGCACAGAUUCUAAUGUUAUUUCGUCUUCCAACAGAGGAUUGAGCAUCA
B4: chr6:71561584:71561585:-_ENSMUSG00000053470_ENSMUST00000065509|mus_hu|FALSE|FALSE (ssRNA)
RNA: GGGAGUUCUACAGUCCGACGAUCACAGCUUUCAUUAUCUACUUUUACUGAAGAUUCCUUUAAAUUCUGUGAUCGGCAAGCUAAAGCUGAAGGUUCUACCUUUUUUCCUGAACAGUUAUUAGGGCUAUCACUAUUGACACCUGCCAACAGAGGAUUGAGCAUCA
B5: chr7:54825262:54825263:-_ENSG00000132432_ENST00000352861|hu_hu|hu_hu_hu_mus_False|28_48 (ssRNA)
RNA: GGGAGUUCUACAGUCCGACGAUCCUGCCGGCUGGGCUCCACAAACUGCAUUACCUGAUCCAUGUUUGUUGGAUGGCGGAUUGAGAGUGCCAGGGACCGUAGCUCAGGGAGCUUGCUAGCCCAACGGAACCGGAAGCUGGCAACCAACAGAGGAUUGAGCAUCA
B6: chr14:102547831:102547832:-_ENSG00000080824_ENST00000216281|hu_hu|FALSE|FALSE (ssRNA)
RNA: GGGAGUUCUACAGUCCGACGAUCCAGUGCACGUUACCCCAAUCUGUGAAAAUAAACCAACAUGAAACUCAAAAAGCAUUACUAGCUCUGCUUUAGUGCCUAAGGUAUCACAGCAUCACUUAGUAGACAGAAAUCUUAUCUUCCCAACAGAGGAUUGAGCAUCA

This is one part of the list.

The target in the experiment is T1, UNK ZnF1-3. As to the kind of experiment: nsRBNS (natural sequence RNA bind-n-seq); RBNS binding buffer (assumed for nsRBNS): 25 mM Tris pH 7.5, 150 mM KCl, 3 mM MgCl2, 0.01% Triton X-100, 500 ug/ml BSA, 20 U/ml SUPERase-In, 4 C; UNK is unkempt and MSI1 is Musashi-1; names of the RNAs are library labels; protein concentration not given here; high values mean tight binding.
For B1, the binding signal is 1.15 enrichment R.

B2: the binding signal worked out at 2.79 enrichment R. Regarding B3, the binding signal amounted to 0.761 enrichment R. Next, B4: 1.22 enrichment R; B5: 1.36 enrichment R. The molecule B6 came in with a binding signal of 1.67 enrichment R.

For the origin of these results see paper PMC12136788.
